# In the supplement of paper PMC8728848:
# This is one part of the list.
# B1: Clrb (Mus musculus) (protein)
# chain: ITGATKTEQIPVNKTYAACPQNWIGVENKCFYFSEYPSNWTFAQAFCMAQEAQLARFDNQDELNFLMRYKANFDSWIGLHRESSEHPWKWTDNTEYNNTIPIRGEERFAYLNNNGISSTRIYSLRMWICSKLNSYSLHCQTPFFPSGTKHHHHHHHHG
# How the values were obtained:
# Assay in all cases: glycan array binding signal (z-score within array); higher = stronger binding
# Details in all cases: glycan notation: IUPAC condensed, linker removed
# Gal(b1-3)Gal = target: Gal(b1-3)Gal
# Procedure, shortened: (§1)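 Glycan array data were curated from 3228 arrays in the Consortium for Functional Glycomics database and kept only where the protein sequence was available. Glycan names were converted to IUPAC-condensed notation, and columns mapping to the same glycan were averaged. The binding signal is a within-array Z-score, averaged across arrays of the same protein sequence at different concentrations or buffers and across linkers. Negative Z-scores can be read as non-binding.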
# Gal(b1-3)Gal(b1-4)GlcNAc = target: Gal(b1-3)Gal(b1-4)GlcNAc
# Procedure, shortened: as §1
# Gal(b1-3)GalNAc = target: Gal(b1-3)GalNAc
# Procedure, shortened: as §1
# [1] = target: Gal(b1-3)GalNAc(a1-3)[Fuc(a1-2)]Gal(b1-4)Glc
# Procedure, shortened: as §1
# [2] = target: Gal(b1-3)GalNAc(a1-3)[Fuc(a1-2)]Gal(b1-4)GlcNAc
# Procedure, shortened: as §1
# Gal(b1-3)GalNAc(b1-3)Gal = target: Gal(b1-3)GalNAc(b1-3)Gal
# Procedure, shortened: as §1
# [3] = target: Gal(b1-3)GalNAc(b1-3)Gal(a1-4)Gal(b1-4)Glc
# Procedure, shortened: as §1
# [4] = target: Gal(b1-3)GalNAc(b1-4)Gal(b1-4)Glc
# Procedure, shortened: as §1
# [5] = target: Gal(b1-3)GalNAc(b1-4)[Neu5Ac(a2-3)]Gal(b1-4)Glc
# Procedure, shortened: as §1
# Gal(b1-3)GlcNAc = target: Gal(b1-3)GlcNAc
# Procedure, shortened: as §1
# [6] = target: Gal(b1-3)GlcNAc(a1-3)Gal(b1-4)GlcNAc
# Procedure, shortened: as §1
# [7] = target: Gal(b1-3)GlcNAc(a1-6)Gal(b1-4)GlcNAc
# Procedure, shortened: as §1
# Gal(b1-3)GlcNAc(b1-2)Man = target: Gal(b1-3)GlcNAc(b1-2)Man
# Procedure, shortened: as §1
# [8] = target: Gal(b1-3)GlcNAc(b1-2)Man(a1-3)[Gal(b1-3)GlcNAc(b1-2)Man(a1-6)]Man(b1-4)GlcNAc(b1-4)GlcNAc
# Procedure, shortened: as §1
# [9] = target: Gal(b1-3)GlcNAc(b1-2)Man(a1-3)[Gal(b1-3)GlcNAc(b1-2)Man(a1-6)]Man(b1-4)GlcNAc(b1-4)[Fuc(a1-6)]GlcNAc
# Procedure, shortened: as §1
# [10] = target: Gal(b1-3)GlcNAc(b1-2)Man(a1-3)[GlcNAc(b1-4)][Gal(b1-3)GlcNAc(b1-2)Man(a1-6)]Man(b1-4)GlcNAc(b1-4)GlcNAc
# Procedure, shortened: as §1
# [11] = target: Gal(b1-3)GlcNAc(b1-2)[Gal(b1-3)GlcNAc(b1-6)]Man(a1-6)[Gal(b1-3)GlcNAc(b1-2)Man(a1-3)]Man(b1-4)GlcNAc(b1-4)GlcNAc
# Procedure, shortened: as §1
# [12] = target: Gal(b1-3)GlcNAc(b1-3)Gal(b1-3)GlcNAc
# Procedure, shortened: as §1
# [13] = target: Gal(b1-3)GlcNAc(b1-3)Gal(b1-4)Glc
# Procedure, shortened: as §1
# [14] = target: Gal(b1-3)GlcNAc(b1-3)Gal(b1-4)GlcNAc
# Procedure, shortened: as §1
# [15] = target: Gal(b1-3)GlcNAc(b1-3)Gal(b1-4)GlcNAc(b1-2)Man(a1-3)[Gal(b1-3)GlcNAc(b1-3)Gal(b1-4)GlcNAc(b1-2)Man(a1-6)]Man(b1-4)GlcNAc(b1-4)GlcNAc
# Procedure, shortened: as §1
# [16] = target: Gal(b1-3)GlcNAc(b1-3)Gal(b1-4)GlcNAc(b1-2)[Gal(b1-3)GlcNAc(b1-3)Gal(b1-4)GlcNAc(b1-6)]Man(a1-6)[Gal(b1-3)GlcNAc(b1-3)Gal(b1-4)GlcNAc(b1-2)Man(a1-3)]Man(b1-4)GlcNAc(b1-4)[Fuc(a1-6)]GlcNAc
# Procedure, shortened: as §1
# [17] = target: Gal(b1-3)GlcNAc(b1-3)Gal(b1-4)GlcNAc(b1-3)Gal(b1-4)GlcNAc(b1-2)[Gal(b1-3)GlcNAc(b1-3)Gal(b1-4)GlcNAc(b1-3)Gal(b1-4)GlcNAc(b1-6)]Man(a1-6)[Gal(b1-3)GlcNAc(b1-3)Gal(b1-4)GlcNAc(b1-3)Gal(b1-4)GlcNAc(b1-2)Man(a1-3)]Man(b1-4)GlcNAc(b1-4)[Fuc(a1-6)]GlcNAc
# Procedure, shortened: as §1
# [18] = target: Gal(b1-3)GlcNAc(b1-3)Gal(b1-4)GlcNAc(b1-6)[Gal(b1-3)GlcNAc(b1-3)]Gal(b1-4)Glc
# Procedure, shortened: as §1
# [19] = target: Gal(b1-3)GlcNAc(b1-3)Gal(b1-4)[Fuc(a1-3)]GlcNAc
# Procedure, shortened: as §1
# [20] = target: Gal(b1-3)GlcNAc(b1-3)Gal(b1-4)[Fuc(a1-3)]GlcNAc(b1-6)[Gal(b1-3)GlcNAc(b1-3)]Gal(b1-4)Glc
# Procedure, shortened: as §1
# [21] = target: Gal(b1-3)GlcNAc(b1-3)GalNAc
# Procedure, shortened: as §1
# [22] = target: Gal(b1-3)GlcNAc(b1-6)Gal(b1-4)GlcNAc
# Procedure, shortened: as §1
# [23] = target: Gal(b1-3)GlcNAc(b1-6)GalNAc
# Procedure, shortened: as §1
# [24] = target: Gal(b1-3)GlcNAc(b1-6)[Gal(b1-3)]GalNAc
# Procedure, shortened: as §1
# Gal(b1-3)GlcNAc6S = target: Gal(b1-3)GlcNAc6S
# Procedure, shortened: as §1
# [25] = target: Gal(b1-3)[Fuc(a1-4)]GlcNAc
# Procedure, shortened: as §1
# [26] = target: Gal(b1-3)[Fuc(a1-4)]GlcNAc(b1-2)Man
# Procedure, shortened: as §1
# [27] = target: Gal(b1-3)[Fuc(a1-4)]GlcNAc(b1-2)Man(a1-3)[Gal(b1-3)[Fuc(a1-4)]GlcNAc(b1-2)Man(a1-6)]Man(b1-4)GlcNAc(b1-4)[Fuc(a1-6)]GlcNAc
# Procedure, shortened: as §1
# [28] = target: Gal(b1-3)[Fuc(a1-4)]GlcNAc(b1-3)Gal(b1-3)[Fuc(a1-4)]GlcNAc
# Procedure, shortened: as §1
# [29] = target: Gal(b1-3)[Fuc(a1-4)]GlcNAc(b1-3)Gal(b1-4)[Fuc(a1-3)]GlcNAc
# Procedure, shortened: as §1
# [30] = target: Gal(b1-3)[Fuc(a1-4)]GlcNAc(b1-6)GalNAc
# Procedure, shortened: as §1
# [31] = target: Gal(b1-3)[GlcNAc(b1-6)]GalNAc
# Procedure, shortened: as §1
# [32] = target: Gal(b1-3)[Neu5Ac(a2-6)]GalNAc
# Procedure, shortened: as §1
# [33] = target: Gal(b1-3)[Neu5Ac(a2-6)]GlcNAc(b1-4)Gal(b1-4)Glc
# Procedure, shortened: as §1
# [34] = target: Gal(b1-3)[Neu5Ac(b2-6)]GalNAc
# Procedure, shortened: as §1
# Gal(b1-4)Gal = target: Gal(b1-4)Gal
# Procedure, shortened: as §1
# [35] = target: Gal(b1-4)GalNAc(a1-3)[Fuc(a1-2)]Gal(b1-4)GlcNAc
# Procedure, shortened: as §1
# [36] = target: Gal(b1-4)GalNAc(b1-3)[Fuc(a1-2)]Gal(b1-4)GlcNAc
# Procedure, shortened: as §1
# Gal(b1-4)Glc = target: Gal(b1-4)Glc
# Procedure, shortened: as §1
binder,measurement,setting,value
B1,glycan array binding signal (z-score),Gal(b1-3)Gal,-0.427
same,glycan array binding signal (z-score),Gal(b1-3)Gal(b1-4)GlcNAc,-0.335
same,glycan array binding signal (z-score),Gal(b1-3)GalNAc,-0.409
same,glycan array binding signal (z-score),[1],-0.432
same,glycan array binding signal (z-score),[2],-0.313
same,glycan array binding signal (z-score),Gal(b1-3)GalNAc(b1-3)Gal,-0.385
same,glycan array binding signal (z-score),[3],-0.383
same,glycan array binding signal (z-score),[4],-0.341
same,glycan array binding signal (z-score),[5],-0.45
same,glycan array binding signal (z-score),Gal(b1-3)GlcNAc,-0.411
same,glycan array binding signal (z-score),[6],-0.251
same,glycan array binding signal (z-score),[7],-0.468
same,glycan array binding signal (z-score),Gal(b1-3)GlcNAc(b1-2)Man,-0.302
same,glycan array binding signal (z-score),[8],-0.404
same,glycan array binding signal (z-score),[9],-0.205
same,glycan array binding signal (z-score),[10],0.722
same,glycan array binding signal (z-score),[11],-0.249
same,glycan array binding signal (z-score),[12],-0.431
same,glycan array binding signal (z-score),[13],-0.439
same,glycan array binding signal (z-score),[14],-0.135
same,glycan array binding signal (z-score),[15],-0.139
same,glycan array binding signal (z-score),[16],-0.14
same,glycan array binding signal (z-score),[17],-0.13
same,glycan array binding signal (z-score),[18],-0.396
same,glycan array binding signal (z-score),[19],-0.121
same,glycan array binding signal (z-score),[20],-0.292
same,glycan array binding signal (z-score),[21],-0.536
same,glycan array binding signal (z-score),[22],-0.399
same,glycan array binding signal (z-score),[23],-0.373
same,glycan array binding signal (z-score),[24],-0.424
same,glycan array binding signal (z-score),Gal(b1-3)GlcNAc6S,-0.362
same,glycan array binding signal (z-score),[25],-0.303
same,glycan array binding signal (z-score),[26],-0.176
same,glycan array binding signal (z-score),[27],-0.438
same,glycan array binding signal (z-score),[28],-0.404
same,glycan array binding signal (z-score),[29],-0.336
same,glycan array binding signal (z-score),[30],-0.534
same,glycan array binding signal (z-score),[31],-0.186
same,glycan array binding signal (z-score),[32],-0.193
same,glycan array binding signal (z-score),[33],-0.219
same,glycan array binding signal (z-score),[34],-0.15
same,glycan array binding signal (z-score),Gal(b1-4)Gal,-0.439
same,glycan array binding signal (z-score),[35],-0.379
same,glycan array binding signal (z-score),[36],-0.353
same,glycan array binding signal (z-score),Gal(b1-4)Glc,-0.305
